ChEMBL document CHEMBL4888484, “Replenishing the malaria drug discovery pipeline: Screening and hit evaluation of the MMV Hit Generation Library 1 (HGL1) against asexual blood stage Plasmodium falciparum ,using a nano luciferase reporter read-out” (2022)
Among all 150,000 compounds or so, about 540 (0.36%) showed an effect of 50% or more. The list shows a part of the results.

What follows are compounds tested on Plasmodium falciparum (assay: Primary screen in NF54 nanoGlo assay, in single point, at 2uM, 72h; a lower Z score goes with more inhibition). Conditions: timepoint 72 hour.
Assay type: functional, Erythrocyte
In the case of `O=S(=O)(NCc1ccnc(-c2cccnc2)c1)c1cccs1`, the “% Inhibition” value was -3% and the Z score was 0.45.
With `COCC1(CNC(=O)c2cn(C)nc2C(C)C)CCCCC1` the “% Inhibition” value was -6% and the Z score was 0.65.
`O=C(c1ccc2[nH]c(=O)[nH]c2c1)N1CC[C@H]1C1CCCC1` was tested, and the “% Inhibition” value was -16% and the Z score was 2.14.
`CC(=O)NC1CN(C(=O)[C@]2(c3ccccc3)CCCO2)C1` was tested, and the “% Inhibition” value was -14% and the Z score was 2.97.
For `CC(C)COc1cncc(N2CCn3c(nnc3C(F)(F)F)C2)n1`, the “% Inhibition” value was -10% and the Z score was 0.97.
With `Cc1cc(N2CCN3C(=O)C(=O)NC[C@H]3C2)ncc1Br` the “% Inhibition” value was 10% and the Z score was -0.89.
In the case of `OCCOc1ccccc1-c1cn(Cc2ccccn2)nn1`, the “% Inhibition” value was -5% and the Z score was 0.62.
With `COc1ccc(CC(=O)N(C)c2nncs2)cc1OC(F)F` the “% Inhibition” value was 0% and the Z score was -0.02.
With `Cn1c(C(=O)NCc2ccccc2Cl)cc2ccncc21` the “% Inhibition” value was 4% and the Z score was -0.62.
In the case of `CC1CCC(C(N)=O)CN1C(=O)C1CC1c1ccco1` (configuration not stated), the “% Inhibition” value was -7% and the Z score was 0.99.
`CC1CC(C)CN(C(=O)c2cccc(S(=O)(=O)N3CCCC3)c2)C1` (configuration not stated) was tested, and the “% Inhibition” value was 1% and the Z score was -0.17.
For `N#CCc1ccc(OCCNC(=O)[C@@H]2Cc3cccc(F)c3O2)cc1`, the “% Inhibition” value was -3% and the Z score was 0.53.
With `O=c1scnn1Cc1ccc(F)cc1` the “% Inhibition” value was -12% and the Z score was 1.06.
`Cn1c(C2CCC2)nnc1N1CCCC[C@H](S(C)(=O)=O)C1` was tested, and the “% Inhibition” value was -1% and the Z score was 0.12.
For `Fc1ccc(NC[C@H]2CCCN2)cc1Cl`, the “% Inhibition” value was -10% and the Z score was 1.22.
`Cc1cccc(NCC(=O)Nc2ccccc2)c1C(=O)N1CCCC1` was tested, and the “% Inhibition” value was -10% and the Z score was 1.14.
With `CS(=O)(=O)[C@H]1C[C@H](N[C@H](c2ccccc2F)C2CCOCC2)C1` the “% Inhibition” value was -3% and the Z score was 0.42.
With `CCn1cc(S(=O)(=O)N[C@H]2CN(C)C[C@@H]2OC)c(C)n1` the “% Inhibition” value was -8% and the Z score was 1.36.
With `Cc1ccnc(NC(=O)c2csc(Cl)c2)n1` the “% Inhibition” value was -11% and the Z score was 2.02.
In the case of `Cc1ncccc1-c1csc(N2CCOCC2)n1`, the “% Inhibition” value was -13% and the Z score was 2.
`Cc1ccc(Cl)cc1NC(=O)N(C)CCc1noc(COc2ccccc2F)n1` was tested, and the “% Inhibition” value was -5% and the Z score was 0.84.
In the case of `Cc1cc(C)c(N(C)S(=O)(=O)c2cc3c(cc2Cl)Oc2cc(C)ccc2NC3=O)c(C)c1`, the “% Inhibition” value was -7% and the Z score was 0.96.
With `O=S(=O)(Cc1ccccc1)N1C2CCC1CC(=C1CC1)C2` the “% Inhibition” value was 12% and the Z score was -1.51.
With `CCOc1cc(C(=O)N2CCCc3cc(C)ccc32)ncn1` the “% Inhibition” value was -2% and the Z score was 0.41.
With `CCn1nccc1CN(C)Cc1nnc(C)o1` the “% Inhibition” value was 0% and the Z score was 0.04.
In the case of `CN(C)C(=O)N1CCN(c2nnc(Cc3ccccc3F)s2)CC1`, the “% Inhibition” value was -9% and the Z score was 0.91.
In the case of `O=C(O)[C@H]1CN(C(=O)c2cc3c(s2)CCCC3)C[C@@H]1C1CC1`, the “% Inhibition” value was -7% and the Z score was 1.27.
In the case of `COCc1nsc(NC(=O)c2ccncc2)n1`, the “% Inhibition” value was -16% and the Z score was 1.36.
For `CN(Cc1ccccc1)c1ccc2ccccc2n1`, the “% Inhibition” value was 5% and the Z score was -0.73.
In the case of `O=C(NCCc1nccn1Cc1ccccc1)[C@H]1CCn2ccnc2C1`, the “% Inhibition” value was 5% and the Z score was -0.73.
With `C[C@@H](COc1ccccc1F)NS(=O)(=O)N1CCCC1` the “% Inhibition” value was -12% and the Z score was 1.5.
`O=C(NCc1ccccn1)[C@@H](c1ccccc1)N1C(=O)c2ccccc2C1=O` was tested, and the “% Inhibition” value was 0% and the Z score was -0.05.
`O=C(Nc1ccccc1-n1cc(Br)cn1)c1ccon1` was tested, and the “% Inhibition” value was 14% and the Z score was -1.85.
In the case of `Cc1cc(NC(=O)C2CCN(S(C)(=O)=O)CC2)ccc1N1CCCC1=O`, the “% Inhibition” value was -10% and the Z score was 1.58.
With `c1ccc([C@H](CNCc2cnc(N3CCOCC3)nc2)N2CCCCCC2)cc1` the “% Inhibition” value was -7% and the Z score was 0.71.
With `Cc1c(NC(=O)C[C@H]2CCCCO2)cccc1N(C)C` the “% Inhibition” value was 4% and the Z score was -0.63.
In the case of `Cc1ccc2nc(-c3ccc(NS(=O)(=O)Cc4ccc(C)c(C)c4)cc3)sc2c1`, the “% Inhibition” value was -18% and the Z score was 2.15.
With `Cc1ccc(-c2ccnn2C)cc1NC(=O)[C@H]1CCCOC1` the “% Inhibition” value was 37% and the Z score was -1.42.
With `NCC1([C@@H]2CCCCN2C(=O)Cc2ccc3cnccc3c2)CCC1` the “% Inhibition” value was 6% and the Z score was -0.87.
For `CCn1nc(C)c(CN(CCOC)C(=O)c2ccc3nc(C)oc3c2)c1C`, the “% Inhibition” value was 6% and the Z score was -1.13.
For `CC1=C(C(=O)N2CCC[C@H](N3CCCC3=O)CC2)CCC1`, the “% Inhibition” value was -9% and the Z score was 0.91.
With `C[C@@]1(C2CC2)NC(=O)N(c2cccc(C#N)c2)C1=O` the “% Inhibition” value was -10% and the Z score was 1.33.
In the case of `O=C(CN1CCOCC1)N1CCN(CCCOc2ccccc2)CC1`, the “% Inhibition” value was 37% and the Z score was -5.4.
For `CC(C)c1cc(C(=O)N2C[C@@H](CN3CCOCC3)C[C@H](CO)C2)[nH]n1`, the “% Inhibition” value was 5% and the Z score was -1.06.
In the case of `COC1CCN(c2ccc(NC(=O)c3cc(C)cs3)cc2)CC1`, the “% Inhibition” value was -10% and the Z score was 1.61.
For `CC(C)N(C)CCNC(=O)N[C@@H](C)c1nc(C(C)(C)C)cs1`, the “% Inhibition” value was -6% and the Z score was 0.64.
For `CCC(=O)Nc1nnn(CCc2ccc(OC)cc2)c1CC`, the “% Inhibition” value was 3% and the Z score was -0.38.
In the case of `C[C@@H](C(=O)Nc1cccc(S(=O)(=O)N2CCCCC2)c1)N1CCCc2ccccc21`, the “% Inhibition” value was -11% and the Z score was 1.12.
`O=S(=O)(CCN1CCn2nc(Cc3ccccc3)cc2C1)c1ccccc1` was tested, and the “% Inhibition” value was -7% and the Z score was 1.34.
With `CCCN(C)c1nccn2c(=O)n(CC(=O)Nc3cc(C)ccc3C)nc12` the “% Inhibition” value was -16% and the Z score was 1.52.
With `CC(C)(C)OC(=O)Nc1cc(Br)ccc1C(=O)O` the “% Inhibition” value was 5% and the Z score was -0.78.
In the case of `CCCOc1ccccc1-c1nc2c3c(ncn2n1)-c1ccccc1CC31CCCC1`, the “% Inhibition” value was -6% and the Z score was 0.91.
In the case of `Nc1nccc(-c2cnn(CC(=O)Nc3ccnn3CC3CCCCC3)c2)n1`, the “% Inhibition” value was -12% and the Z score was 1.62.
`CCn1nccc1S(=O)(=O)N[C@H]1CCOC[C@@H]1OCc1ccccc1` was tested, and the “% Inhibition” value was -6% and the Z score was 0.65.
For `COc1ccc([C@@H](c2c(O)ccc3ccccc23)N2CCOCC2)c(OC)c1`, the “% Inhibition” value was 2% and the Z score was -0.27.
With `CCN(C(=O)N1CC[C@H](N(C)Cc2ccccc2)C1)C(C)C` the “% Inhibition” value was 4% and the Z score was -0.5.
For `O=C(CCC(=O)c1ccccc1)NCCn1ccnc1-c1cnccn1`, the “% Inhibition” value was 5% and the Z score was -0.7.
In the case of `CO[C@@H](C(=O)NCc1ccc[nH]1)c1ccccc1C(F)(F)F`, the “% Inhibition” value was -5% and the Z score was 0.86.
`CCN(C(=O)c1cccc(F)c1F)[C@H]1CCN(C(=O)c2csc(C)n2)C[C@@H]1O` was tested, and the “% Inhibition” value was -6% and the Z score was 0.5.
With `COC(=O)[C@@H]1C[C@@H](NC(=O)c2cccc3ccccc23)CN1` the “% Inhibition” value was 0% and the Z score was -0.01.
For `CC(C)CC[C@@]1(C2CCN(C(=O)c3c(F)ccc(F)c3F)CC2)NC(=O)N(CCN(C)C)C1=O`, the “% Inhibition” value was -9% and the Z score was 1.68.
In the case of `CC(=O)NCCc1ncc(C)n1C1CCCC1`, the “% Inhibition” value was -7% and the Z score was 0.99.
`O=C(Cn1nc(N2CCOCC2)c2ccccc2c1=O)Nc1cccc(Cl)c1` was tested, and the “% Inhibition” value was -18% and the Z score was 2.65.
For `COc1ccc(-n2cc(-c3ccc4c(c3)OCO4)n(CC(=O)Nc3ccccc3Cl)c2=O)cc1`, the “% Inhibition” value was -12% and the Z score was 2.06.
With `CC(NC(=O)NC1CC1c1cccc(F)c1F)C1CCOCC1` (configuration not stated) the “% Inhibition” value was -12% and the Z score was 1.64.
`CN(CC(=O)NCCC[C@H]1CCOC1)Cc1ccncc1` was tested, and the “% Inhibition” value was -15% and the Z score was 1.43.
With `Cc1cc(=O)n(CC(=O)Nc2ccc3c(c2)OCO3)c(N)n1` the “% Inhibition” value was 4% and the Z score was -0.76.
In the case of `CCn1cc(NC(=O)NCc2ccc(N3CCCCC3)nc2)cn1`, the “% Inhibition” value was -5% and the Z score was 0.98.
With `COc1ccc(CNC[C@H]2O[C@H](Cc3cc(CN(C)C)on3)CC[C@@H]2O)cc1` the “% Inhibition” value was 0% and the Z score was 0.07.
For `COc1cccc(Cn2c(=O)c(C(=O)NCc3ccncc3)nn(-c3ccc(C)c(C)c3)c2=O)c1`, the “% Inhibition” value was -9% and the Z score was 1.44.
`COc1ccc(/C=C/c2cc(/C=C/c3ccc(OC)cc3)nc(-c3ccc(OC)cc3)n2)cc1` was tested, and the “% Inhibition” value was -9% and the Z score was 1.22.
For `COCCN1CC2(CCC1=O)CCN(C(=O)c1cn3cccnc3n1)CC2`, the “% Inhibition” value was 1% and the Z score was -0.09.
`Cc1cccc(CN2C[C@@H](O)C[C@H]2c2nnc3n2CCN(C(=O)C(C)C)C3)c1` was tested, and the “% Inhibition” value was 4% and the Z score was -0.68.
With `C[C@@H](CC#CCN1CCOCC1)OC(C)(C)C` the “% Inhibition” value was -16% and the Z score was 2.55.
In the case of `COc1ccccc1-c1nc2ccc(C)cn2c1NC(=O)Nc1ccc(C)cc1`, the “% Inhibition” value was -1% and the Z score was 0.13.
`CC[C@H]1CN(c2ncnc3c2Cc2ccccc2OC3)CCO1` was tested, and the “% Inhibition” value was -10% and the Z score was 1.32.
`Cc1cc2cc(NC(=O)c3ccc(C)c(NC(=O)[C@@H]4CCCO4)c3)ccc2o1` was tested, and the “% Inhibition” value was 5% and the Z score was -0.71.
For `Cc1nccn1C1(C(=O)O)CCN(Cc2ccccc2C#N)CC1`, the “% Inhibition” value was -2% and the Z score was 0.33.
In the case of `CCN(CC)C(=O)NC1CCN(c2cccnn2)CC1`, the “% Inhibition” value was -7% and the Z score was 0.76.
For `Cn1ncc(-c2ccccc2)c1NC(=O)Cn1ncc2cccnc21`, the “% Inhibition” value was -9% and the Z score was 1.8.
For `Cc1cncc(C(=O)N2CC(O)CC2CO)c1` (configuration not stated), the “% Inhibition” value was -1% and the Z score was 0.1.
`O=C1c2ccccc2C(=O)N1CC#CCN1CCOCC1` was tested, and the “% Inhibition” value was -2% and the Z score was 0.38.
In the case of `O=C1Nc2ccccc2CC[C@@H]1N1CCc2sccc2C1`, the “% Inhibition” value was -8% and the Z score was 1.19.
`CN1CC[C@@]2(CCC1=O)CN(C(=O)CCc1ccc(F)cc1F)CCN2C` was tested, and the “% Inhibition” value was -14% and the Z score was 1.6.
In the case of `CC1CCN(C(=O)c2ccc3nnnn3c2)CC1`, the “% Inhibition” value was 25% and the Z score was -2.78.
`O=C(c1ccccc1)N1CCC(c2ccn3ncc(C(=O)N4CCCC4)c3c2)CC1` was tested, and the “% Inhibition” value was -11% and the Z score was 1.83.
